Measured values taken from a collection of fitness landscapes (doi:10.1038/s41467-024-54723-y).
The full ranking holds about 18,000 sequences; the median of “TetR repression strength (sort-seq, GFP reporter)” is about 0.23, and the highest 2% start at about 0.68. The list shows a part of the results.

These sequences were tested against TetR (class B, Tn10) (UniProt P04483) (assay: TetR repression strength (sort-seq, GFP reporter) (relative to tetO2 = 1); higher = stronger repression). Conditions: E. coli.
UniProt P04483, sequence (P04483 whole entry): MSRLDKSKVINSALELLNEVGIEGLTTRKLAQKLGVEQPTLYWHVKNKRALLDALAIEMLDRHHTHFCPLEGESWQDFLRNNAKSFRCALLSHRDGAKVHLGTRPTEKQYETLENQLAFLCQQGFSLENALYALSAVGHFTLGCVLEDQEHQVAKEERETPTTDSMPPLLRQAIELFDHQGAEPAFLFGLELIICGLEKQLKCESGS
In short: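 Repression strength was calculated by subtracting the read-weighted mean bin from the top bin index plus one and dividing by the unaltered operator's value. The plasmid library was low-copy in E. coli SIG10-MAX, with eight randomized operator positions between a constitutive promoter and sfGFP and constitutive TetR. Cultures grew 5 h at 37 °C in LB containing 50 µg/mL chloramphenicol before 10^6 cells were sorted by FACS into 13 fluorescence bins, each sequenced on Illumina. Three independent transformations were averaged for members having ≥30 reads in all replicates and a CV ≤0.5.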

Sequence	TetR repression strength
TCCCCGCTAGTAGGTGAGA	0.0856
TCCCGGTCAGTGCCAGAGA	0.271
TCCCACGTAGTCCCTGAGA	0.422
TCCCTTATAGTGTATGAGA	0.0968
TCCCTAGGAGTGAAGGAGA	0.129
TCCCACCCAGTGGCTGAGA	0.127
TCCCAGAGAGTGGAAGAGA	0.148
TCCCATGTAGTCCTCGAGA	0.299
TCCCTCCTAGTGGGGGAGA	0.13
TCCCGTAGAGTTTGAGAGA	0.0224
TCCCCAATAGTTAGGGAGA	0.699
TCCCTGGTAGTGACAGAGA	1.03
TCCCGTTTAGTGGAGGAGA	0.132
TCCCGGGCAGTAGGCGAGA	1.05
TCCCGTCCAGTCCGTGAGA	0.341
TCCCGGCCAGTATGCGAGA	0.209
TCCCTTCAAGTCGCCGAGA	0.402
TCCCTAGAAGTCCTCGAGA	0.314
TCCCCTGAAGTCTTCGAGA	0
TCCCGCACAGTAATAGAGA	0.298
TCCCAATAAGTCTGGGAGA	0.173
TCCCAACGAGTTCTTGAGA	0.184
TCCCACTAAGTGGAGGAGA	0.267
TCCCGCTTAGTCTCAGAGA	0.229
TCCCAGTCAGTACCCGAGA	0.354
TCCCGGTAAGTGCTTGAGA	0.248

Sequence	TetR repression strength
TCCCCGTTAGTGCGGGAGA	0.0422
TCCCGGACAGTGGGAGAGA	0.281
TCCCCCAGAGTGTGAGAGA	0.0598
TCCCAGTGAGTTTTGGAGA	0.132
TCCCATCCAGTGTGGGAGA	0.217
TCCCGGTGAGTGGGGGAGA	0.203
TCCCGAGTAGTGCGGGAGA	0.182
TCCCACGGAGTTGAGGAGA	0.262
TCCCTGCAAGTGGCGGAGA	0.293
TCCCATCTAGTGAAGGAGA	0.627
TCCCAGCGAGTAGCTGAGA	0.139
TCCCAACAAGTACCTGAGA	0.31
TCCCTCCGAGTGTTAGAGA	0.415
TCCCGATCAGTAGTAGAGA	0.459
TCCCGATTAGTGCGTGAGA	0.197
TCCCACTCAGTTATCGAGA	0.617
TCCCCGGGAGTGCCCGAGA	0.0528
TCCCACCCAGTGGGCGAGA	0.404
TCCCATTGAGTGCATGAGA	0.244
TCCCATTAAGTGTTAGAGA	0.277
TCCCCAGGAGTGGGGGAGA	0.142
TCCCGGAGAGTTGTAGAGA	0.158
TCCCTATTAGTCACTGAGA	0.322
TCCCGTGGAGTCAAGGAGA	0.486
TCCCCAGTAGTTTGCGAGA	0.202
TCCCCTATAGTGCTAGAGA	0.285

Sequence	TetR repression strength
TCCCAATCAGTGTAAGAGA	0.74
TCCCTCAGAGTACGCGAGA	0.338
TCCCTATGAGTCTCGGAGA	0.204
TCCCATTCAGTTTATGAGA	0.248
TCCCTCCGAGTACGGGAGA	0.613
TCCCTGGAAGTGCCAGAGA	0.368
TCCCTTAGAGTCATGGAGA	0.0217
TCCCAACAAGTACTAGAGA	0.143
TCCCAAGAAGTGTCGGAGA	0.318
TCCCATGCAGTGGCTGAGA	0.152
TCCCGGTCAGTTGGGGAGA	0.275
TCCCGAAGAGTGGGAGAGA	0.0852
TCCCCTGGAGTTCGGGAGA	0.015
TCCCTGTAAGTAGGGGAGA	0.115
TCCCCCTCAGTCGCGGAGA	0.259
TCCCATTGAGTTAGGGAGA	0.273
TCCCCTGGAGTCGTGGAGA	0.258
TCCCCACCAGTGCCAGAGA	0.642
TCCCCTCGAGTGGGCGAGA	0.179
TCCCTGACAGTAGTTGAGA	0.122
TCCCGCATAGTTGAAGAGA	0.472
TCCCCTTGAGTTGATGAGA	0.327
TCCCCCTTAGTTGAGGAGA	0.114
TCCCTCGGAGTTGTAGAGA	0.0421
TCCCCGTGAGTGGGCGAGA	0.0545
TCCCTGTAAGTCGTGGAGA	0.309

Sequence	TetR repression strength
TCCCGTACAGTATGCGAGA	0.104
TCCCCAGGAGTGGCTGAGA	0.0764
TCCCAGTAAGTGGGAGAGA	0.137
TCCCTATTAGTTGCAGAGA	0.498
TCCCCAGAAGTTGGTGAGA	0.0426
TCCCGGTGAGTTTAGGAGA	0.231
TCCCACTAAGTTTGAGAGA	0.374
TCCCGGCGAGTGAGAGAGA	0.539
TCCCAGATAGTGAAGGAGA	0.344
TCCCGGGAAGTCCAAGAGA	0.169
TCCCACAGAGTCAATGAGA	0.487
TCCCACAGAGTCGTGGAGA	0.295
TCCCCCAGAGTGACGGAGA	0.265
TCCCAAGTAGTCGCGGAGA	0.0901
TCCCCTACAGTTCAAGAGA	0.457
TCCCCTACAGTCATTGAGA	0.403
TCCCTTTGAGTGAATGAGA	0.472
TCCCTAAAAGTGGTGGAGA	0.155
TCCCGCTGAGTGGAAGAGA	0.0346
TCCCCTTTAGTGGCCGAGA	0.278
TCCCAGAGAGTGCTAGAGA	0.0479
TCCCCCGTAGTTATGGAGA	0.161
TCCCAATCAGTCATGGAGA	0.158
TCCCTTCGAGTTGTAGAGA	0.382
TCCCGGGTAGTGCCCGAGA	0.197
TCCCGGCAAGTTGTCGAGA	0.286

Sequence	TetR repression strength
TCCCGCCGAGTAGAGGAGA	0.342
TCCCGTGCAGTTGGAGAGA	0.223
TCCCGTGGAGTTTGAGAGA	0.172
TCCCGGCGAGTGGAGGAGA	0.311
TCCCCATGAGTATATGAGA	0.318
TCCCGCCTAGTATCCGAGA	0.608
TCCCGGGTAGTGATAGAGA	0.431
TCCCAATAAGTGAATGAGA	0.403
TCCCGAACAGTGATTGAGA	0.506
TCCCCAGCAGTGACAGAGA	0.211
TCCCAAATAGTTCATGAGA	0.235
TCCCGGTTAGTCTATGAGA	0.375
TCCCCGCTAGTGGTGGAGA	0.0215
TCCCACTAAGTTGAGGAGA	0.161
TCCCGTTGAGTGGATGAGA	0.196
TCCCAAAAAGTCATTGAGA	0.279
TCCCAGGCAGTAGCAGAGA	0.355
TCCCTCTGAGTGCTCGAGA	0.315
TCCCTTGCAGTTTTAGAGA	0.26
TCCCAAGAAGTGTGTGAGA	0.282
TCCCCTCCAGTCGTTGAGA	0.49
TCCCCGATAGTCGCGGAGA	0.09
TCCCCTTTAGTTAGCGAGA	0.129
TCCCAGACAGTTAATGAGA	0.607
TCCCGCTGAGTGCTGGAGA	0.159
TCCCCACAAGTCTGGGAGA	0.165

Sequence	TetR repression strength
TCCCATGAAGTTCTTGAGA	0.166
TCCCAATTAGTGATGGAGA	0.347
TCCCTTGCAGTTAACGAGA	0.104
TCCCGCTGAGTGCCAGAGA	0.341
TCCCATCAAGTGTGAGAGA	0.215
TCCCCCGAAGTGTAGGAGA	0.209
TCCCGGCCAGTAACTGAGA	0.165
TCCCTGCGAGTCGGTGAGA	0.245
TCCCGGTCAGTGAGCGAGA	0.426
TCCCGTTGAGTAGTGGAGA	0.239
TCCCTTGGAGTTCCCGAGA	0.562
TCCCCCATAGTTAGGGAGA	0
TCCCGGGTAGTGTGCGAGA	0.268
TCCCAACCAGTATCGGAGA	0.0726
TCCCGTTTAGTCTTTGAGA	0.58
TCCCATTCAGTCTTGGAGA	0.254
TCCCTTGGAGTTGTCGAGA	0.144
TCCCGTAGAGTGCGGGAGA	0.056
TCCCAATTAGTCCACGAGA	0.346
TCCCGTATAGTCAGTGAGA	0.346
TCCCCAGTAGTGCCGGAGA	0.264
TCCCGTTAAGTCTGTGAGA	0.277
TCCCTGACAGTGACTGAGA	0.49
TCCCGTAGAGTCTTAGAGA	0.128
TCCCATGTAGTGGCCGAGA	0.26
TCCCGGAGAGTCGGAGAGA	0.187

Sequence	TetR repression strength
TCCCATAGAGTGGTCGAGA	0.339
TCCCCGTCAGTCGGTGAGA	0.138
TCCCGGGTAGTTTCAGAGA	0.146
TCCCCGTTAGTGCAAGAGA	0.423
TCCCTTGCAGTGAGAGAGA	0.61
TCCCCGAAAGTTTCTGAGA	0.0126
TCCCATCAAGTATATGAGA	0.104
TCCCCGCCAGTGGAAGAGA	0.215
TCCCAGACAGTCATCGAGA	0.368
TCCCTTGTAGTTGGGGAGA	0.136
TCCCAGAGAGTCGGTGAGA	0.326
TCCCTCGTAGTGTATGAGA	0.0896
TCCCTATTAGTTGGGGAGA	0.483
TCCCGTTTAGTCGTCGAGA	0.447
TCCCTCGAAGTGAGAGAGA	0.208
TCCCAATGAGTTCAAGAGA	0.361
TCCCGCAGAGTGATAGAGA	0.521
TCCCGGCCAGTAGAGGAGA	0.0618
TCCCGCTGAGTGTGGGAGA	0.102
TCCCTAGAAGTTGCGGAGA	1.2
TCCCCGCCAGTAAAAGAGA	0.389
TCCCCTAAAGTAGGCGAGA	0.0467
TCCCGACAAGTGTTCGAGA	0.297
TCCCTGCGAGTGTGTGAGA	0.254
TCCCTGTTAGTCAGGGAGA	0.0638
TCCCGCATAGTGCTGGAGA	0.0999

Sequence	TetR repression strength
TCCCAGCGAGTAACGGAGA	0.104
TCCCAAGAAGTGATAGAGA	0.393
TCCCATATAGTCAGGGAGA	0.345
TCCCGCCTAGTCTCGGAGA	0
TCCCGAGTAGTGAAGGAGA	0.436
TCCCTATAAGTAGGAGAGA	0.228
TCCCGGGAAGTGCAAGAGA	0.563
TCCCCTGAAGTGCGGGAGA	0.155
TCCCTGTTAGTTACGGAGA	0.193
TCCCTGTAAGTTGCAGAGA	0.0925
TCCCTCGAAGTCCTTGAGA	0.279
TCCCATCGAGTAAAGGAGA	0.0791
TCCCGACAAGTATATGAGA	0.24
TCCCGCGTAGTGCCAGAGA	0.163
TCCCGGCAAGTACTGGAGA	0.115
TCCCTAGGAGTAATTGAGA	0.272
TCCCTCTCAGTCTGTGAGA	0.376
TCCCGAGAAGTAACTGAGA	0.172
TCCCCGGTAGTACGAGAGA	0.196
TCCCAATGAGTGCAAGAGA	0.309
TCCCACTCAGTTGGCGAGA	0.169
TCCCAGCCAGTGGCCGAGA	0.17
